Drawing on publication PMC12136788, this text covers binding signal for 22 molecules.

The other results are listed elsewhere or left out.

T1: UNK ZnF1-3 (human, UniProt Q9C0B0 31-174)
T1 sequence: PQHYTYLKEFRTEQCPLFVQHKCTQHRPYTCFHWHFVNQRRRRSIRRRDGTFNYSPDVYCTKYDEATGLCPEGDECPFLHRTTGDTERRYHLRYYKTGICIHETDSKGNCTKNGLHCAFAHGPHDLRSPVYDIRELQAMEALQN

B1: chr6:42301883:42301884:+_ENSMUSG00000029860_ENSMUST00000070635|mus_hu|FALSE|FALSE (ssRNA)
RNA: GGGAGUUCUACAGUCCGACGAUCCACGGGGUGCUGCUUCUCCUGCACUCGGGGCUUCUCCCUCUGCUGGGCAUAGGUGAAGCUGGGAGGUUGAGGGGAGCCUGUGCCAGCAGAAAGAGCUUCGGGGUGCCCCAAUUUUUGAUUCAACAGAGGAUUGAGCAUCA
B2: chr11:6247107:6247108:+_ENSMUSG00000020456_ENSMUST00000003461|mus_hu|FALSE|FALSE (ssRNA)
RNA: GGGAGUUCUACAGUCCGACGAUCGAACAUGGGCUCAUCCAUCUCGUUGUGGCCGUUGCGCCGGUAACACACCAAAUCGACAACCACGUCCUUGUGGAAGGUGCUCCUCCACUCGGCCGCCACUUUGCACACGUACAUGACAGCCAACAGAGGAUUGAGCAUCA
B3: chr11:34129765:34129766:+_ENSG00000135372_ENST00000257829|hu_mus|motif|central (ssRNA)
RNA: GGGAGUUCUACAGUCCGACGAUCCCAUUCUCAAUGAGAAUUCGAAUUCGGUUAUCCACCUUCUUCCGAUUCAUGAUGAAAAGCGGUCACUGCGCCCUGCUCCGGCCGACACCAGGCAGCUGCACAACGGAAGCACGUGAAGACCAACAGAGGAUUGAGCAUCA
B4: chr7:140404665:140404666:+_ENSG00000090266_ENST00000247866|hu_hu|hu_hu_hu_mus_False|18_58 (ssRNA)
RNA: GGGAGUUCUACAGUCCGACGAUCUGCUCCUACUCGUCCAGAGAGUUUACAGUGUCAGUCCUCGUCAUCAGGAGGGAUACCUAAUUCUUCAUCUGUCCACUGUGAAGGAUCUGGAUACGGAAAGUGACCCAGCACAGCAUCCGACAACAGAGGAUUGAGCAUCA
B5: chr4:140556289:140556290:+_ENSMUSG00000036622_ENSMUST00000037055|mus_mus|mus_mus_mus_hu_False|1_18 (ssRNA)
RNA: GGGAGUUCUACAGUCCGACGAUCGAUGGAGCUCACCAGGCCCCCUUUUGCCGUGCAGAACCCUGUGCGGGUCACCACUGCCAGGACGUGCGGUCCCACAUAGGCCCGGGCCUGCAAAAUGAGGGUGCCGCAGAAGAGGGUGUGCAACAGAGGAUUGAGCAUCA
B6: 22330225_22334248_969_3pUTR_ENSG00000058600_ENST00000564750|human|control|control (ssRNA)
RNA: GGGAGUUCUACAGUCCGACGAUCAAGUCUCGGCCCCUGCAGAGCACCUCAGCAGGCACGCCGCUGUGAGGGCUGGACGAGUCCUUGGGGUAUAGGAUGUCACUCUUCACCACCCAGUUCCCUUGGACCAACAUCGCCACCUUCCAACAGAGGAUUGAGCAUCA
B7: chr10:7519382:7519383:+_ENSMUSG00000015757_ENSMUST00000015901|mus_mus|FALSE|FALSE (ssRNA)
RNA: GGGAGUUCUACAGUCCGACGAUCAGGCUCGGGUGAUCGAUCAGGAAUUAAUAAAUCAGGAGGGUCAUCAAAUGGAUCAUCUAAAAUCACUGUAUGAUUUAUCCUUAUAUCUUGAUAUGGUACAAAAUCCUUGUCCACAAAGGUCAACAGAGGAUUGAGCAUCA
B8: chr10:106022761:106022762:+_ENSG00000148834_ENST00000369713|hu_hu|FALSE|FALSE (ssRNA)
RNA: GGGAGUUCUACAGUCCGACGAUCAAAUUCUUUACGAAAUUCUUCUUUUAGGCCAGCAUAGUCUUCUUUAUUUUGGCUUCUAAUAAAGCUUCCUACCAAGGAUGGCACCUUAGAAAACAACUCUAAGAUCAUCUUCUGGCAAGCCAACAGAGGAUUGAGCAUCA
B9: chr10:33190432:33190433:-_ENSG00000150093_ENST00000302278|hu_mus|hu_hu_hu_mus_True|1_68 (ssRNA)
RNA: GGGAGUUCUACAGUCCGACGAUCUACAUUUUCCAAACCUGCAUGUGAAUAAAACCCUGGCCACAGAGCCCUAAAGCUACCCUACUGUGACUAAGAUGCUGCUGCUGUGAGCUUGGUGUUGCAAAAUCCGCCUGAGUCAGUACUCAACAGAGGAUUGAGCAUCA
B10: chr7:151048522:151048523:+_ENSG00000013374_ENST00000566856|hu_mus|hu_hu_hu_mus_True|8_18 (ssRNA)
RNA: GGGAGUUCUACAGUCCGACGAUCCUGUUUCUUAUUUAUUACGAUCUUGAUGUAAUUUUCUUGAAAUCCGAAAGUUUCAGCUAUUUGACACCUCAGGUCUCUACCAGUGACAUGCAAUCGGGUCUCCAACAAGUUUUUCUUAUCCAACAGAGGAUUGAGCAUCA
B11: chr1:41461666:41461667:+_ENSG00000171793_ENST00000372621|hu_mus|FALSE|FALSE (ssRNA)
RNA: GGGAGUUCUACAGUCCGACGAUCCCAUUUCAUCAGCAUCUUUCGUGACUGUCUCUCAAUAGGAAGGUCAAGUCUCCGAAGAAAGUAGUCUACAACCCCUUGCUCUUCUAACAACAAGGGUACCCGGUAGAUGGAUGAAACAUCCAACAGAGGAUUGAGCAUCA
B12: chr17:38574076:38574077:-_ENSG00000131747_ENST00000423485|hu_hu|FALSE|FALSE (ssRNA)
RNA: GGGAGUUCUACAGUCCGACGAUCAAUGGUGACACUUCCAUGGUGACGGUCGUGAAGGGGCUCAAGAACCCUGAAAGCGACUAAACAGGCAGGACCCCACGAGACCACCCCCGACCAAGCCGCUUCUCCACAGACGCGCGUCGGCAACAGAGGAUUGAGCAUCA
B13: chr6:41757443:41757444:+_ENSG00000214736_ENST00000398881|hu_mus|hu_hu_hu_mus_False|18_38 (ssRNA)
RNA: GGGAGUUCUACAGUCCGACGAUCGAACCGUGCAGAGGCAACAUCUCAGCCGACACUGGGGGAUGGGGGGGCAGUGGGGGGGGGUUCAGGCAAGGAGAAGAAAAGUGCUUCAGCUGCUCAAACUUCAGGAUCUUGUGGUCACAGCAACAGAGGAUUGAGCAUCA
B14: chr2:32088997:32088998:+_ENSMUSG00000039262_ENSMUST00000036691|mus_mus|motif|central (ssRNA)
RNA: GGGAGUUCUACAGUCCGACGAUCUCCCCCUUAAGGAAGCUUAGACCCAGAAGUGUUCUGUGAACUCUGAAUUUGAAAAUGCGGAACUUGGGAAUCAGACAAGGAAAGCAACUGUUAAGAGACCAGACUAAAUGCAGUCGGCAGCAACAGAGGAUUGAGCAUCA
B15: chrX:102931600:102931601:-_ENSG00000123562_ENST00000441076|hu_hu|motif|central (ssRNA)
RNA: GGGAGUUCUACAGUCCGACGAUCGUCCUCAACAAGCCAUGGUUUUAAUUCUUCAGGAAUCUUCACUUUAACCUCCAUUCGGUUCUUAAACGCCUCCUCACUUUCAACAGUGGGGUCUGCCCGGGCCCUUUUCUUCCGAGGGGGCAACAGAGGAUUGAGCAUCA
B16: chr4:99962207:99962208:+_ENSG00000164024_ENST00000296411|hu_hu|motif|central (ssRNA)
RNA: GGGAGUUCUACAGUCCGACGAUCGCCGGCAGCAACAUCCAAAACUUCUCUAGCAAGCCUACAUACAAGUCGCAUCCCUUCGGUAUCUUCAGAUGAGAGUAAUUUAAUCUGAGAAGUACCUUUAAGAGCCUGUUCAGAUUCAGACAACAGAGGAUUGAGCAUCA
B17: chr10:1038518:1038519:+_ENSG00000107937_ENST00000545048|hu_hu|hu_hu_hu_mus_False|48_48 (ssRNA)
RNA: GGGAGUUCUACAGUCCGACGAUCCAGUCUGUCAUGGUAAUUCUGUUGAGUAAAUUUGACUUUUCUCAUAUAAAAAUGUCGAAUCCGAUGUAUUUGGUAAUGUUUAUGAAUAACCGUUGGAGUCUUUCGUUGAGUCUUGGAUAACAACAGAGGAUUGAGCAUCA
B18: chr6:114281168:114281169:-_ENSG00000196591_ENST00000368632|hu_hu|hu_hu_hu_mus_True|8_88 (ssRNA)
RNA: GGGAGUUCUACAGUCCGACGAUCUUCCAUUUUUCGGUAUAAACCAUAAUUUAACAGCAAGUUAUGAGUCAUCCGGAUUCUAUGAGGCUUCAUGGGAUGACCCUGGCCAUAAUAAUAAUUGCCAAUAUCACAGAUUCAGUAGUACAACAGAGGAUUGAGCAUCA
B19: chrX:20248820:20248821:+_ENSMUSG00000001924_ENSMUST00000001989|mus_mus|mus_mus_mus_hu_True|48_48 (ssRNA)
RNA: GGGAGUUCUACAGUCCGACGAUCGGCGAAGUCCGUCACCACAAAGUCAGGUUCUGCCAGUGAGGCCACCAAGGAUUUAAAGCUAAUCUUUUUCGGUACUUUGACCUGACUGACGAUGCCUCCACGGAUGUAGUCGGAGAAGUUCAACAGAGGAUUGAGCAUCA
B20: 57307908_57312862_387_CDS_ENSG00000128050_ENST00000264221|human|control|control (ssRNA)
RNA: GGGAGUUCUACAGUCCGACGAUCACCUGCUUCCUGUAAUAACUGAAAAAUACAACUGGUGAUUUUAUUUGAGAUUGCAGCUUUUCCUUCCAGGUGGUUUUUUCUAGCUGCAUUUCCUGCUGUAAUCUGGUCCUUGGACUGCAGCAACAGAGGAUUGAGCAUCA
B21: chr3:9412954:9412955:+_ENSG00000134077_ENST00000452837|hu_mus|hu_hu_hu_mus_False|1_58 (ssRNA)
RNA: GGGAGUUCUACAGUCCGACGAUCGGUUGAUAUCUCUUCUUUGAUGGCUGGAUUUUCAUAAUAGUCCAAGAUAUGUGAAUCUAAAGCGCUGCUGGCAUGCUUUUUCUUACCAUCUUUCUCAUCUGCUUUGUCUCCUUGUCCAUUCAACAGAGGAUUGAGCAUCA
B22: 79658811_79658931_1260_3pUTR_ENSMUSG00000089715_ENSMUST00000109627|mouse|control|control (ssRNA)
RNA: GGGAGUUCUACAGUCCGACGAUCUGAGGGGCAGCCGGAAGAGCUGGAGCUGUGUGCGUCAAAGGGGGCAGCAGCUGGGGUGGCCAGGAGCAGCCCAGGCCCCGAGGAGGCCACAUCGGCUUUGCCCGCAGUAGAGGGCGCCAGCAACAGAGGAUUGAGCAUCA

For this assay, the target named is T1, UNK ZnF1-3. The experiment in a line: nsRBNS (natural sequence RNA bind-n-seq); RBNS binding buffer (assumed for nsRBNS): 25 mM Tris pH 7.5, 150 mM KCl, 3 mM MgCl2, 0.01% Triton X-100, 500 ug/ml BSA, 20 U/ml SUPERase-In, 4 C; UNK is unkempt and MSI1 is Musashi-1; names of the RNAs are library labels; protein concentration not given here; high values mean tight binding.
For B1, the binding signal turned out to be 1.1 enrichment R.
B2 showed a binding signal of 0.561 enrichment R.
Then B3, with 1.44 enrichment R; and B4, with 1.13 enrichment R; and B5, with 0.349 enrichment R.
As for B6, the binding signal was 0.641 enrichment R.
With B7 the figure was 0.846 enrichment R; with B8, 0.922 enrichment R.
As to B9, the binding signal is 0.908 enrichment R.
Then B10, with 0.485 enrichment R; and B11, with 0.668 enrichment R.
With B12 the figure was 0.72 enrichment R; with B13, 1.37 enrichment R.
B14 gave a binding signal of 1.6 enrichment R.
With B15 the figure was 1.13 enrichment R; with B16, 1.93 enrichment R; with B17, 0.525 enrichment R.
Then B18, with 0.908 enrichment R.
B19 yielded a binding signal of 0.869 enrichment R.
In turn, B20 showed a binding signal of 0.599 enrichment R.
In turn, B21 registered a binding signal of 0.278 enrichment R.
With B22 the figure was 1.26 enrichment R.
